Results are given in words; binding and its absence hold for the method and conditions named. Binding seen in cells or lysates may run through a third protein. Some results given as binding are weak or reduced against the parent protein; the word gives no strength. Tags and fused reporters may be left off the sequences shown.
T1: HIS-tagged Ddi1 (^HISDdi1) (yeast) (UniProt P40087)
T1 sequence: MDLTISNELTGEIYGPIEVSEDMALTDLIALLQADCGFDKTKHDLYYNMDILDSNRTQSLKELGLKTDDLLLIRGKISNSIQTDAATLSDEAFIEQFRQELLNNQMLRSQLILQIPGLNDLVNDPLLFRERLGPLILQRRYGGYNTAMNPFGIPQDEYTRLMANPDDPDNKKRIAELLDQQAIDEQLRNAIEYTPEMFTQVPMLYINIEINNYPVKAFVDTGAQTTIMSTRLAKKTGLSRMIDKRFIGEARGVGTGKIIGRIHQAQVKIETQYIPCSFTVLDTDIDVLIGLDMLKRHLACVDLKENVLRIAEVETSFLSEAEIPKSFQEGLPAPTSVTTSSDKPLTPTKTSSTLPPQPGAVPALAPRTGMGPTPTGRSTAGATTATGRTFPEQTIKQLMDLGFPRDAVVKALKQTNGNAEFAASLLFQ

T2: GFP-tagged Ho endonuclease (^GFPHo) (yeast) (UniProt P09932)
T2 sequence (chain, ubiquitylated as produced in yeast (sites not stated)): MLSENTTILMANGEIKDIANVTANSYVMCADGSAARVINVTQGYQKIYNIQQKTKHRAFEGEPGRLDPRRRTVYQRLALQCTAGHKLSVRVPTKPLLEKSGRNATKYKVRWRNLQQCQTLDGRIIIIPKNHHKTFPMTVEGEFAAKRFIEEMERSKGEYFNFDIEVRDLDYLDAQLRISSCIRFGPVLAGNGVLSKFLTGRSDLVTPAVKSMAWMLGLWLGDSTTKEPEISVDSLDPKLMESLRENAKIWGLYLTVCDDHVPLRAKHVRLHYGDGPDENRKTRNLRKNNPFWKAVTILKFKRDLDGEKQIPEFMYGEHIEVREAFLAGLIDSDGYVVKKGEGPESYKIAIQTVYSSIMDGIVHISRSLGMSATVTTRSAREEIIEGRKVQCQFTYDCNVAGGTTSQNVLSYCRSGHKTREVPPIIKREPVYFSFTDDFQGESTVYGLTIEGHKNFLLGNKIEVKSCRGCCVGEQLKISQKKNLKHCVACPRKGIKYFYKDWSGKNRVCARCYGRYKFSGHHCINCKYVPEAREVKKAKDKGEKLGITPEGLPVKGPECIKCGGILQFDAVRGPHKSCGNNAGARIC

T3: myc-tagged Cdc53 (^mycCdc53) (S. cerevisiae) (UniProt Q12018)
T3 sequence: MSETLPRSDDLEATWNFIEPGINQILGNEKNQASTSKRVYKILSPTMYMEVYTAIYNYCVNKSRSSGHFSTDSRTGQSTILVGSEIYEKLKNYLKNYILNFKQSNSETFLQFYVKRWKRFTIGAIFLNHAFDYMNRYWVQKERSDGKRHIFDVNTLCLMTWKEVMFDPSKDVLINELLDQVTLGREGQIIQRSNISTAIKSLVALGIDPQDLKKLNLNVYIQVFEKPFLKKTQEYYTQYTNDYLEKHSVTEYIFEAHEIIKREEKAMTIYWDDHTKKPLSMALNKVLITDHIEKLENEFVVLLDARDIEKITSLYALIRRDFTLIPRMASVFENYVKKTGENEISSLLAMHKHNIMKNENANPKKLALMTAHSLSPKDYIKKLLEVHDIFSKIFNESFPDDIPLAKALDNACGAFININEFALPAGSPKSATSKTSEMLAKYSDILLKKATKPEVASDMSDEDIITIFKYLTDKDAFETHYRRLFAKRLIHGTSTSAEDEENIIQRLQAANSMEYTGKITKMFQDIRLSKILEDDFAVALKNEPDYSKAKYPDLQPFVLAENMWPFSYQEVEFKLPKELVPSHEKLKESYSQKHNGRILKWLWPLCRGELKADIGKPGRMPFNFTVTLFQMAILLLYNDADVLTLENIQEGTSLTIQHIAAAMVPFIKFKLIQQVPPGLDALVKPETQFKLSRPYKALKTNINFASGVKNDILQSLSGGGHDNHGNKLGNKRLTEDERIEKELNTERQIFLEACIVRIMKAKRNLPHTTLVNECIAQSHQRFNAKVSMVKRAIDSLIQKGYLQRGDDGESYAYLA

T4: GST-tagged full-length Ddi1 (^GSTFL-Ddi1) (yeast), P40087
T4 chain: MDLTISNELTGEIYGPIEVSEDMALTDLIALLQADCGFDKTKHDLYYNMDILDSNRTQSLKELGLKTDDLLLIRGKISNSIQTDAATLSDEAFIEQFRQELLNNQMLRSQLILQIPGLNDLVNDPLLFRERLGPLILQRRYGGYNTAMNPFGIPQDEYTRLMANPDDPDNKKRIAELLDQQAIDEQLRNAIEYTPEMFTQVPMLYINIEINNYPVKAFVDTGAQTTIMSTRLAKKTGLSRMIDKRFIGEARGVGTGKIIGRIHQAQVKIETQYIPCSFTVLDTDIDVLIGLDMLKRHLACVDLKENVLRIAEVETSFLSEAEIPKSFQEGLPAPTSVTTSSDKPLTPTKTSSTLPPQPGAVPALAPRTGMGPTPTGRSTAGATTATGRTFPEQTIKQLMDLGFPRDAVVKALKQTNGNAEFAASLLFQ


Columns and labels:
[1] = target: T1, HIS-tagged Ddi1 (^HISDdi1) (yeast); assay: pull-down; HIS-Ddi1 on Ni beads incubated with Ufo1 (GST-Ufo1 lysate or GFP-Ufo1 extract) together with GST-Rpn1 lysate at x1 or x2, no Ho (Figure 5A lane 7, Figure 5B lanes 5 and 6, Figure 5C); only the target purified
[2] = target: T2, GFP-tagged Ho endonuclease (^GFPHo) (yeast); assay: co-IP; bacterial lysates with HIS-Rpn1 and GST-Ufo1 mixed with yeast extract with myc-Cdc53 and GFP-Ho; aliquots immunoprecipitated with anti-myc, anti-GFP, anti-GST or anti-HIS and Protein A beads (Figure 4, + Ho)
[3] = target: T3, myc-tagged Cdc53 (^mycCdc53) (S. cerevisiae); assay: as above
[4] = target: T3, myc-tagged Cdc53 (^mycCdc53) (S. cerevisiae); assay: co-IP; as a6 but yeast extract without GFP-Ho; immunoprecipitated with anti-myc, anti-GST or anti-HIS (Figure 4, - Ho)
[5] = target: T1, HIS-tagged Ddi1 (^HISDdi1) (yeast); assay: pull-down; HIS-Ddi1 on Ni beads incubated with one lysate or extract alone (GST-Rpn1 or GST-Ufo1 bacterial lysate, GFP-Ho or GFP-Ufo1 yeast extract); washed with 2.5% Triton X100 and 100 mM imidazole (Figure 5A lanes 4-6, Figure 5B lanes 3 and 4); only the target purified
[6] = target: T1, HIS-tagged Ddi1 (^HISDdi1) (yeast); assay: pull-down; HIS-Ddi1 on Ni beads incubated with GST-Ufo1 and/or GST-Rpn1 lysate together with yeast extract with ubiquitylated GFP-Ho (Figure 5A lanes 8-10); only the target purified
[7] = target: T4, GST-tagged full-length Ddi1 …; assay: pull-down; recombinant GST fusion on GSH beads incubated with bacterial lysate holding a HIS-tagged protein; Western blot (Figures 1C, 3C, 3D, 5D, 5E with Rpn1 alone); only the target purified; conditions: remark: other sources report otherwise

binding [2]	binding [3]	binding [4]	binding [5]	binding [6]	binding [7]	Binder	binding [1]
binds	binds	no binding (condition: without GFP-Ho)	binds	binds	–	GST-tagged full-length Ufo1 (^GSTFL-Ufo1) (protein, UniProt Q04511 1-668) MERPGLVLQDLPPEILINIFSHLDEKDLFTLQELSTHFRNLIHDEELWKNLFKSRVHTTHFPTFSQSSKFSVEYIERTRGLHHWQHNKAIRTKYTIIPTRNWDQPSIERIVFDYPRVAAYNDGTITILQLQNHKRQKKFKKLIYIPCTTPQGCSTMDFNINAAVFGRFDGRVFGKLLSNKSYLTPVMEFTGRHSAGVTAICNSESWDTSREDWSVSGSENGEIIWWCENKLVKMWKVSNRVIWKLAFFKDWTLIMDDEKLYIIHQMQELHSIDIPKDLDEQPMRVRFFKMDFGSMTLVLADLNNVYTISVNPNGNFGNLRKLEMPEQICAVEIDEKTSQREQNWQFAGDDGCYISLLTTQNTLYIINIRDLSSSGLKVQCKISFDEQVYVSQVTNLIVVVALPNVLQILNAMTGELIKTVLKTEKFPEFLKVSQDKIIMGSGNVLNYLKFVSSDSKKHHHSTKGKNTVSNKWNETLNTELQYYDEDEDLRRKRQSEISRLIDAYGGDLELSGDTDEENDIQLRIALLESQEAQARNQAEAGEPVGDDEDEQLRRALEESQLIYETQTNSSANHGNNTNDEIDEDDEEFLRAIRQSRVEDERRRHLRNHTTGRRNGPLSDDNFATYGAAESSERTSTENTIGSSVGVDASNNVDEDLQLAIALSLSEIN	no binding (condition: with GST-Rpn1 lysate as competitor)
–	–	–	–	–	binds	HIS-tagged Rpn1 (^HISRpn1), P38764 1-993 (protein) MVDESDKKQQTIDEQSQISPEKQTPNKKDKKKEEEEQLSEEDAKLKTDLELLVERLKEDDSSLYEASLNALKESIKNSTSSMTAVPKPLKFLRPTYPDLCSIYDKWTDPNLKSSLADVLSILAMTYSENGKHDSLRYRLLSDVSDFEGWGHEYIRHLALEIGEVYNDQVEKDAEDETSSDGSKSDGSAATSGFEFSKEDTLRLCLDIVPYFLKHNGEEDAVDLLLEIESIDKLPQFVDENTFQRVCQYMVACVPLLPPPEDVAFLKTAYSIYLSQNELTDAIALAVRLGEEDMIRSVFDATSDPVMHKQLAYILAAQKTSFEYEGVQDIIGNGKLSEHFLYLAKELNLTGPKVPEDIYKSHLDNSKSVFSSAGLDSAQQNLASSFVNGFLNLGYCNDKLIVDNDNWVYKTKGDGMTSAVASIGSIYQWNLDGLQQLDKYLYVDEPEVKAGALLGIGISASGVHDGEVEPALLLLQDYVTNPDTKISSAAILGLGIAFAGSKNDEVLGLLLPIAASTDLPIETAAMASLALAHVFVGTCNGDITTSIMDNFLERTAIELKTDWVRFLALALGILYMGQGEQVDDVLETISAIEHPMTSAIEVLVGSCAYTGTGDVLLIQDLLHRLTPKNVKGEEDADEEETAEGQTNSISDFLGEQVNEPTKNEEAEIEVDEMEVDAEGEEVEVKAEITEKKNGESLEGEEIKSEEKKGKSSDKDATTDGKNDDEEEEKEAGIVDELAYAVLGIALIALGEDIGKEMSLRHFGHLMHYGNEHIRRMVPLAMGIVSVSDPQMKVFDTLTRFSHDADLEVSMNSIFAMGLCGAGTNNARLAQLLRQLASYYSREQDALFITRLAQGLLHLGKGTMTMDVFNDAHVLNKVTLASILTTAVGLVSPSFMLKHHQLFYMLNAGIRPKFILALNDEGEPIKVNVRVGQAVETVGQAGRPKKITGWITQSTPVLLNHGERAELETDEYISYTSHIEGVVILKKNPDYREEE	–

From publication PMC3398040
